Experimental data: PMC6750928
These are yes or no findings as the source states them, for the method shown. Binding seen in cells or lysates may run through a third protein. Some binding calls cover weakened binding; strength is not graded here. One block for each molecule: values may come before it.

Protein sequences, listed by entry. Tags and fused reporters are not part of them. Residues count along the entry.
UniProt P46093: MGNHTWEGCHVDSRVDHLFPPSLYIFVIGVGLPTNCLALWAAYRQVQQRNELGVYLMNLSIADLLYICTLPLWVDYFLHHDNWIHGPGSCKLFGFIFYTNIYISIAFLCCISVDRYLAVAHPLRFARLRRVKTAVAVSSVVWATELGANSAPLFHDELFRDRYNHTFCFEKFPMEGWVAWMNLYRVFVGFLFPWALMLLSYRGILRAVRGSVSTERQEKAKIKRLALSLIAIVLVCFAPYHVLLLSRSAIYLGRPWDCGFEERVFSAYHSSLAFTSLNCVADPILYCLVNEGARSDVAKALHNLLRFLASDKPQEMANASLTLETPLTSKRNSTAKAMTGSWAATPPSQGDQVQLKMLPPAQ
UniProt P32248, residues 25-378: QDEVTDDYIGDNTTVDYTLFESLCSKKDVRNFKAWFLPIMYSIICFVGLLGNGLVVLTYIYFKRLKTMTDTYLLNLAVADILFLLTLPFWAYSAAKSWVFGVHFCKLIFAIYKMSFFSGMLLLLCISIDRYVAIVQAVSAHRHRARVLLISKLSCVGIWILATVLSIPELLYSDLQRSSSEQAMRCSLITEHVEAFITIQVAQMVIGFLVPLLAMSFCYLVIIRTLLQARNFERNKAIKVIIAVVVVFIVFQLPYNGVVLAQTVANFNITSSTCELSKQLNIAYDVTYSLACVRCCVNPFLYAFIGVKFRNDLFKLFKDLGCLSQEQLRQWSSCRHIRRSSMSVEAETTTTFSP
UniProt O15218: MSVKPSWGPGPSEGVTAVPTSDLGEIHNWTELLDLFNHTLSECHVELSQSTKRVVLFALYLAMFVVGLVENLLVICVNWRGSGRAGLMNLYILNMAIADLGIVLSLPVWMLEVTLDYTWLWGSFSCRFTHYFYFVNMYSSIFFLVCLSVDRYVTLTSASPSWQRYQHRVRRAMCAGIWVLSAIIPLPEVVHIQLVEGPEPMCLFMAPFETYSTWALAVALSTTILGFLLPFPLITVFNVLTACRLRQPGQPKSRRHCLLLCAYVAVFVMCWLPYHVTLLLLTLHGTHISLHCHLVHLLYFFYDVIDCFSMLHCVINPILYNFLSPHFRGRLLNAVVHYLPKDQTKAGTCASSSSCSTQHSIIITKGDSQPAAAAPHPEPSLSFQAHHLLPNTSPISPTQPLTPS
UniProt P25106: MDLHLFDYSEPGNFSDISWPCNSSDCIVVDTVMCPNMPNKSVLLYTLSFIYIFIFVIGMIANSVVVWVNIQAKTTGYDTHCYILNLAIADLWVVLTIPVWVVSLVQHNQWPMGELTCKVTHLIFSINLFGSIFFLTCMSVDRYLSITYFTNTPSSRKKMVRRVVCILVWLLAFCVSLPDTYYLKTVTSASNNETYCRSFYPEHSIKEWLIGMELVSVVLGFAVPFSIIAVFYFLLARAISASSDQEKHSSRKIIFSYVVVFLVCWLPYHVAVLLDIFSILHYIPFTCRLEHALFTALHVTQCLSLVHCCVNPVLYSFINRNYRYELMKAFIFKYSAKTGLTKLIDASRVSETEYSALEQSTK
UniProt P51681: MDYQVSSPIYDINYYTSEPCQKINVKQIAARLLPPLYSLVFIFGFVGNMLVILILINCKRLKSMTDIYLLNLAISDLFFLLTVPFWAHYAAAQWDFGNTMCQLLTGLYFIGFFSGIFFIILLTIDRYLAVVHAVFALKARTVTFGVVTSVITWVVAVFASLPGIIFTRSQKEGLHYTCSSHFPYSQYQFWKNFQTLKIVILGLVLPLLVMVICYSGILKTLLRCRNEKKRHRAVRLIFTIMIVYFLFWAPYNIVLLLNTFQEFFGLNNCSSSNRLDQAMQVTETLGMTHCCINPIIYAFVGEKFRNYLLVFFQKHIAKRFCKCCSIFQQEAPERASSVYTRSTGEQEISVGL
UniProt P61073: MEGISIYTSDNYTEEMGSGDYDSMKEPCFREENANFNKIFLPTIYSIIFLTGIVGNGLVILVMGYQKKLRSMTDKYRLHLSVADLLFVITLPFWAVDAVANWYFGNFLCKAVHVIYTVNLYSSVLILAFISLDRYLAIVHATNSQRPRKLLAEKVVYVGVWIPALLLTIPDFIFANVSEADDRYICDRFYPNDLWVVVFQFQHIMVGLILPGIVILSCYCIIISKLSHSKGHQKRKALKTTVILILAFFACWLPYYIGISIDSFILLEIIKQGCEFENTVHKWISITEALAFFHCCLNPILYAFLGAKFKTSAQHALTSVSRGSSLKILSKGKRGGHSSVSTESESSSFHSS
UniProt O60895, residues 43-175: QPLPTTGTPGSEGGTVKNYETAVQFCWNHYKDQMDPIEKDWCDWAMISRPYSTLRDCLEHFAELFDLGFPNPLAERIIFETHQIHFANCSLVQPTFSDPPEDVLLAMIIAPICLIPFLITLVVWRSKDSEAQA
UniProt O60894, residues 27-148: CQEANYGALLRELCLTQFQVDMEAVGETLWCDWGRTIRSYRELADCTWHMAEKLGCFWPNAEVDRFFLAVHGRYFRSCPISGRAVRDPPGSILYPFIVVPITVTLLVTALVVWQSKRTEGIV

Legend:
Test in all cases: co-IP; multiplexed suspension bead array (SBA) immunoassay: clarified lysates (1% DM; 50 mM Hepes, 1 mM EDTA, 150 mM NaCl, 5 mM MgCl2, pH 7.4) of HEK293F cells cotransfected with tagged GPCR and RAMP, diluted to 50 ug/ml, incubated overnight at 4°C with bar-coded beads carrying anti-tag (HA, 1D4, FLAG, OLLAS), anti-GPCR or anti-RAMP Abs; the partner detected with a PE-conjugated anti-tag mAb; Luminex FlexMap 3D, MFI
[1] = target: T1, Cortocotropin-releasing hormone receptor 2 (human) (UniProt Q13324)
T1 sequence: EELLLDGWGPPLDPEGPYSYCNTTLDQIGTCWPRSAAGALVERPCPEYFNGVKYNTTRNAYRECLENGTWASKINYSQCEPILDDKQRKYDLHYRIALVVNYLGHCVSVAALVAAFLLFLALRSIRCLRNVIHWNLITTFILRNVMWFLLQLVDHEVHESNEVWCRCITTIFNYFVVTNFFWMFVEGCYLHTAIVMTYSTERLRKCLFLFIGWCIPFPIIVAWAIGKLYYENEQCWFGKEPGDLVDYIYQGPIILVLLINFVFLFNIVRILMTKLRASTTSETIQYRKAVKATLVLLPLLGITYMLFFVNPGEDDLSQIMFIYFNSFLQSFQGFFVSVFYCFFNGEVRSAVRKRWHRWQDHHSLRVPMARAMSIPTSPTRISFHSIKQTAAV

[2] = target: G protein-coupled receptor 4 (human) (UniProt P46093)
[3] = target: C-C chemokine receptor type 7 (human) (UniProt P32248)
[4] = target: T2, Growth hormone releasing hormone (human) (UniProt Q02643)
T2 sequence: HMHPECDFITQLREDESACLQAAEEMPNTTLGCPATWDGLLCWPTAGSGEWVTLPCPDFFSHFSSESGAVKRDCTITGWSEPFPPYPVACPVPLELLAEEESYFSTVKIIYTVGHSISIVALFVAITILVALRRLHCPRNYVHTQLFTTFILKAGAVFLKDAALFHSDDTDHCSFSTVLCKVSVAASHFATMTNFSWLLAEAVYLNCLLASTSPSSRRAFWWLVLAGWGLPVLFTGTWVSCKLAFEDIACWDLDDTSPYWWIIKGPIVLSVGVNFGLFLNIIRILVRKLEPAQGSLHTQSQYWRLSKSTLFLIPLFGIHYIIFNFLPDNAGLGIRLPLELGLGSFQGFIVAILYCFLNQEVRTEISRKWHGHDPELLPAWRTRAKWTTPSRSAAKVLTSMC

[5] = target: G protein-coupled receptor 182 (human) (UniProt O15218)
[6] = target: Atypical chemokine receptor 3/C-X-C chemokine receptor 7 (human) (UniProt P25106)
[7] = target: C-C chemokine receptor type 5 (human) (UniProt P51681)
[8] = target: C-X-C chemokine receptor type 4 (human) (UniProt P61073)

binding [1]: no binding
binding [2]: binds
binding [3]: no binding
binding [4]: binds
binding [5]: binds
binding [6]: binds weakly
binding [7]: no binding
binding [8]: no binding
Molecule: Receptor activity-modifying protein 2 (from UniProt O60895 43-175)

binding [1]: no binding
binding [2]: binds
binding [3]: no binding
binding [5]: binds
binding [7]: no binding
binding [8]: no binding
Molecule: Receptor activity-modifying protein 1 (from UniProt O60894 27-148)

binding [1]: binds weakly
binding [2]: binds
binding [4]: binds
binding [5]: binds
binding [6]: binds weakly
binding [8]: no binding
B1: Receptor activity-modifying protein 3 (protein, UniProt O60896 28-148)
chain: CNETGMLERLPLCGKAFADMMGKVDVWKWCNLSEFIVYYESFTNCTEMEANVVGCYWPNPLAQGFITGIHRQFFSNCTVDRVHLEDPPDEVLIPLIVIPVVLTVAMAGLVVWRSKRTDTLL
